The campaign covered roughly 390,000 compounds. About 150 (0.038%) were called active. Inconclusive means that the source gave no clear call. Such entries were picked first, then a sample of the others. The call rests on the fitted dose curve; in most records, active means well fitted inhibition curve with a large enough effect; inconclusive means small, poorly fitted or top-dose-only effect; inactive means no such curve, though single readings can be large or run the other way. A potency beside an inconclusive call is a rough fit, not a confirmed value.
Each compound was assayed against Regulator of G-protein signaling 4 (Homo sapiens) (UniProt P49798) (assay: Inhibitors of Regulator of G Protein Signaling (RGS) 4: qHTS). Conditions: Transcreener GDP fluorescence polarization, RGS4-accelerated GTP hydrolysis; series mostly up to 114 µM; activity change, negative = inhibition: at the top concentration.
Summary of the method: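 MLSMR compounds (23 nl, pin-transferred) preincubated 10 min at room temperature with a 500nM (2x) first reagent, then RGS4 at 900nM (2x) plus Transcreener GDP mix added; fluorescence polarization (620/688 nm) read before and after 90 min at 30 °C.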
Further: nearly all actives have a fitted effect of over 75% in size.
On the % scale 0 is the no-effect control and ±100 the full control effect; potency means the concentration at half of the fitted maximal effect; tags describe the fitted curve by direction and shape.

Chain of UniProt P49798 (P49798 whole entry, looked up): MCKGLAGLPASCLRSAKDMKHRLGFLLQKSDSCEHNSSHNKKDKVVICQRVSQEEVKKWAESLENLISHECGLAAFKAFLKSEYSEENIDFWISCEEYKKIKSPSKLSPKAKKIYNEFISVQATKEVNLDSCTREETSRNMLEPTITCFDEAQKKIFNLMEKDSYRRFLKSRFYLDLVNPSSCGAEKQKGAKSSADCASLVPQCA

For CC12CCC(C(=O)N(CSC(=S)N/N=C\c3ccccc3O)C1=O)C2(C)C (stereo unspecified), which Potency is on record?
The Potency was inconclusive: 79.4 µM [inhibitor, partial curve, poor fit].

For Cc1ccc(-n2c(C)cc(/C=N/Nc3ccc([N+](=O)[O-])cn3)c2C)cc1, which Potency is on record?
The Potency was inconclusive: 100 µM [inhibitor, single point].

COc1cc(/C=C2\SC(=S)N(NC(C)=O)C2=O)ccc1OC(=O)c1ccco1 was tested. Which Potency did it give?
The Potency was inconclusive: 50.1 µM [inhibitor, partial curve, poor fit].

CC(C)CC1C(C#N)=C(N)SC(N)=C1C#N was tested. Which Potency did it give?
Its Potency is inconclusive: 56.2 µM [inhibitor, partial curve, poor fit].

With COc1ccc(CCNC(=O)CC(c2ccccc2)c2cc(C)ccc2O)cc1OC (stereo unspecified) as the compound, how does the Potency read?
The Potency was inconclusive: 89.1 µM [inhibitor, single point].

For CC(C)(C)c1cc(OS(C)(=O)=O)ccc1O, which Potency is on record?
The Potency was inconclusive: 39.8 µM [inhibitor, partial curve, poor fit].

How did the Potency turn out when Cc1[nH][nH]c(=O)c1C(c1ccc([N+](=O)[O-])cc1)c1c(C)[nH][nH]c1=O was run?
The Potency was inconclusive: 50.1 µM [inhibitor, partial curve, poor fit].

For Cc1ccc2nc(-c3cccnc3)cc(C(=O)Nc3ccccc3[N+](=O)[O-])c2c1, which Potency is on record?
Its Potency is inconclusive: 100 µM [inhibitor, single point].

With O=C1c2cccc3c(N4CCCCC4)ccc(c23)C(=O)N1c1ccccc1O as the compound, how does the “activity change, negative = inhibition” value read?
The value was inactive: -0.097%.

Which Potency does the source give for COc1cccc(/C=N/NC(=O)c2[nH]c(C)c(C(=O)N/N=C/c3cccc(OC)c3O)c2C)c1O here?
Its Potency is inconclusive: 79.4 µM [inhibitor, partial curve, poor fit].

With O=C(N/N=C/c1ccc[nH]1)c1c[nH]c2ccccc12 as the compound, how does the Potency read?
The Potency was inconclusive: 50.1 µM [inhibitor, partial curve, poor fit].

With O=C(O)[C@@H]1C[C@H](C(=O)O)N1 as the compound, how does the Potency read?
The Potency was inconclusive: 0.0843 µM [inhibitor, full curve, poor fit].

How did the “activity change, negative = inhibition” value turn out when C=CCC[C@H](Cc1ccc(F)cc1)C(=O)OC[C@@H]1CCCN1C(=O)[C@@H](CC=C)CC(=O)NCCO was run?
Its value is inactive: -20.8%.

Which “activity change, negative = inhibition” value does the source give for CCC(=O)Nc1cccc(-c2nnc(SCC(=O)c3ccccc3)n2C)c1 here?
Its value is inactive: -25.2% [at 56.9 µM].

How did the “activity change, negative = inhibition” value turn out when CCOc1c2c(c(-c3ccc4c(c3)OCO4)c3cc(OC)c(OC)cc13)C(=O)OC2 was run?
The value was inactive: -10.4%.

For Cc1ccc(S(=O)(=O)N2[C@@H](c3ccc(C(C)(C)C)cc3)C(C(=O)O)=CC[C@H]2c2ccc(Cl)cc2)cc1, which “activity change, negative = inhibition” value is on record?
Its value is inactive: -0.0874%.

COc1cc(NC(=O)c2cccnc2SC)cc(OC)c1OC was tested. Which Potency did it give?
Its Potency is inconclusive: 79.4 µM [inhibitor, single point].

With CCN(CC)c1ccc2c(-c3ccc(S(=O)(=O)O)cc3S(=O)(=O)[O-])c3ccc(=[N+](CC)CC)cc-3oc2c1 as the compound, how does the Potency read?
The Potency was inconclusive: 79.4 µM [inhibitor, partial curve, poor fit].

O=C(CSc1ccccc1)NCc1ccccn1 was tested. Which Potency did it give?
Its Potency is inconclusive: 20 µM [inhibitor, full curve, poor fit].

For Cc1ccc(-c2cccc(NC(=O)C3C(C(=O)O)[C@@H]4C=C[C@H]3C4)c2)o1 (stereo partly specified), which Potency is on record?
The Potency was inconclusive: 44.7 µM [inhibitor, partial curve, poor fit].

c1cc(CNc2ccc3c(c2)OCO3)ccn1 was tested. Which Potency did it give?
The Potency was inconclusive: 79.4 µM [inhibitor, partial curve, poor fit].

With CCOCCCN(Cc1cc2cc(C)cc(C)c2[nH]c1=O)C(=O)N(CC)CC as the compound, how does the Potency read?
The Potency was inconclusive: 89.1 µM [inhibitor, single point].

How did the “activity change, negative = inhibition” value turn out when O=C(c1csc2c1CCCC2)N1CCN(c2ncccn2)CC1 was run?
The value was inactive: -14.6%.

With O=C(Cn1nnc(-c2ccccc2)n1)N/N=C/c1cc([N+](=O)[O-])c(Cl)cc1Cl as the compound, how does the “activity change, negative = inhibition” value read?
Its value is inactive: -24.1%.

Which “activity change, negative = inhibition” value does the source give for CC(C)CC(=O)Nc1ccc(-c2cn3cccnc3n2)cc1 here?
Its value is inactive: -5.32%.

How did the Potency turn out when CC(C)=CCN1CCC(n2nccc2NC(=O)c2ccccc2Cl)CC1 was run?
The Potency was inconclusive: 100 µM [inhibitor, partial curve, poor fit].

Which “activity change, negative = inhibition” value does the source give for O=C(c1ccc(F)cc1)C(CN1CCOCC1)c1ccccc1 (stereo unspecified) here?
The value was inactive: -40%.

COCCNC(=O)COC(=O)c1cc(-c2ccc(OC)cc2)nc2ccccc12 was tested. Which Potency did it give?
Its Potency is inconclusive: 79.4 µM [inhibitor, partial curve, poor fit].

Which “activity change, negative = inhibition” value does the source give for CNC(=S)N(CCc1c(C)[nH]c2ccc(Cl)cc12)Cc1cc(OC)c(OC)c(OC)c1 here?
Its value is inactive: -31.1%.

CC(=O)Nc1ccc(NC(=S)NC(=O)/C=C/c2ccco2)cc1 was tested. Which Potency did it give?
Its Potency is inconclusive: 44.7 µM [inhibitor, partial curve, poor fit].

With Cc1nn(-c2ccccc2)c(N2CCCC2)c1/C=N/NC(=O)c1ccccc1O as the compound, how does the “activity change, negative = inhibition” value read?
The value was inactive: -7.45%.

Which “activity change, negative = inhibition” value does the source give for O=c1c2ccccc2oc2cc(-c3ccc4[nH]ccc4c3)ccc12 here?
Its value is inactive: -1.84%.

How did the Potency turn out when CC1=NNC(=O)/C1=C\c1cn(-c2ccccc2)nc1-c1ccccc1 was run?
Its Potency is inconclusive: 44.7 µM [inhibitor, partial curve, poor fit].

COc1ccc(-c2noc(CN(C(=O)c3ccc4c(c3)OCO4)C(C)C)n2)cc1 was tested. Which “activity change, negative = inhibition” value did it give?
Its value is inactive: 15.7%.

How did the Potency turn out when O=c1n(CCCN2CCN(c3cccc(Cl)c3)CC2)nc2ccccn12 was run?
Its Potency is “inactive”.

For Cc1ccc(S(=O)OCC(=O)Nc2cc(Cl)ccc2N2CCOCC2)cc1 (stereo unspecified), which Potency is on record?
Its Potency is inconclusive: 31.6 µM [inhibitor, full curve, poor fit].

Which Potency does the source give for Cc1onc(-c2ccccc2)c1CNC(=O)Nc1ccc(F)cc1F here?
The Potency was inconclusive: 79.4 µM [inhibitor, partial curve, poor fit].

Which “activity change, negative = inhibition” value does the source give for Cc1ccc(S(=O)(=O)N(CC(O)CN2CCCC2)c2ccccc2)cc1 (stereo unspecified) here?
Its value is inactive: 1.61%.

How did the “activity change, negative = inhibition” value turn out when COc1ccc(CC(=O)N/N=C/C=C/c2ccc3c(c2)OCO3)cc1OC was run?
Its value is inactive: -12.3%.

Which Potency does the source give for CCCn1c(SCC(=O)N2CCCC(C)C2)nnc1-c1cccnc1 (stereo unspecified) here?
The Potency was inconclusive: 100 µM [inhibitor, single point].

For CCNC(=O)C(=O)NCCC1CCCCN1S(=O)(=O)c1cccs1 (stereo unspecified), which “activity change, negative = inhibition” value is on record?
Its value is inactive: 12.8%.

Which “activity change, negative = inhibition” value does the source give for COc1cc(C)c(C(C)C)cc1S(=O)(=O)N1CCN(C)CC1 here?
Its value is inactive: -0.647%.

With CCCCCC(=O)/C=C/C=C\CCCCCCCC(=O)O as the compound, how does the Potency read?
Its Potency is inconclusive: 0.597 µM [inhibitor, partial curve, poor fit].

With CCc1cccc2sc(N3CCN(C(=O)C4CC4)CC3)nc12 as the compound, how does the “activity change, negative = inhibition” value read?
Its value is inactive: -25.7%.

Which Potency does the source give for S=C(Nc1ccc2cn[nH]c2c1)Nc1ccc(Cl)cc1Cl here?
Its Potency is inconclusive: 89.1 µM [inhibitor, partial curve, poor fit].

How did the Potency turn out when CC(C)OC(=O)CC(=O)c1sc2nc3c(cc2c1N)CN(C)CC3 was run?
Its Potency is inconclusive: 50.1 µM [inhibitor, partial curve, poor fit].

How did the Potency turn out when COc1cccc(Nc2nnc(-c3cc4ccc(O)cc4oc3=O)s2)c1 was run?
Its Potency is inconclusive: 50.1 µM [inhibitor, partial curve, poor fit].

Which Potency does the source give for CCCc1ccc(C2C3=C(CC(C)(C)CC3=O)NC3=C2C(=O)c2ccccc23)cc1 (stereo unspecified) here?
Its Potency is inconclusive: 100 µM [inhibitor, partial curve, poor fit].

With NC(=O)CC(NC(=O)c1ccccc1)c1ccc(NCc2ccccn2)c([N+](=O)[O-])c1 (stereo unspecified) as the compound, how does the “activity change, negative = inhibition” value read?
The value was inactive: -20.9%.

O=C(Cn1c(=O)c2sccc2n(Cc2ccc([N+](=O)[O-])cc2)c1=O)NCCc1ccccc1 was tested. Which Potency did it give?
The Potency was inconclusive: 70.8 µM [inhibitor, partial curve, poor fit].

For CC(C)Cc1nnc(NC(=O)CN2C(=O)c3ccccc3C2=O)s1, which Potency is on record?
Its Potency is inconclusive: 79.4 µM [inhibitor, partial curve, poor fit].

For CCc1cccc(C)c1NC(=O)Nc1ccc2c(c1)OCO2, which Potency is on record?
The Potency was inconclusive: 79.4 µM [inhibitor, single point].

OC(CCc1cccc(Cl)c1)c1cccs1 (stereo unspecified) was tested. Which Potency did it give?
The Potency was inconclusive: 89.1 µM [inhibitor, partial curve, poor fit].

With O=C(CSc1nccn(-c2cccc(F)c2)c1=O)Nc1ccc(Cl)cc1F as the compound, how does the Potency read?
The Potency was inconclusive: 28.2 µM [inhibitor, full curve, poor fit].

How did the “activity change, negative = inhibition” value turn out when Cc1ccc(CNC(=O)CSc2ccc(-c3ccco3)nn2)cc1 was run?
The value was inactive: -19%.

How did the Potency turn out when Cc1onc(-c2ccccc2)c1C(=O)Nc1nnc(COc2ccc(Cl)cc2)s1 was run?
The Potency was inconclusive: 70.8 µM [inhibitor, partial curve, poor fit].

How did the Potency turn out when O=C(NCC1CCCCC1)c1cc([N+](=O)[O-])ccc1N1CCOCC1 was run?
The Potency was inconclusive: 89.1 µM [inhibitor, partial curve, poor fit].

With CSC1SCC2C(=O)N(C)C(C(C)C)C(=O)OCC(NC(=O)c3cnc4ccccc4n3)C(=O)NC(C)C(=O)N(C)C1C(=O)N(C)C(C(C)C)C(=O)OCC(NC(=O)c1cnc3ccccc3n1)C(=O)NC(C)C(=O)N2C (stereo unspecified) as the compound, how does the Potency read?
Its Potency is inconclusive: 79.4 µM [inhibitor, partial curve, poor fit].

For COc1cc(/C=N/N(C)c2ccccc2)cc(Cl)c1O, which Potency is on record?
The Potency was inconclusive: 56.2 µM [inhibitor, partial curve, poor fit].

For O=C(CSc1nnnn1-c1ccc(F)cc1)NC1CCCCC1, which Potency is on record?
The Potency was inconclusive: 70.8 µM [inhibitor, single point].

Which “activity change, negative = inhibition” value does the source give for Cc1[nH]c2ccccc2c1N=Nc1cccc(C(=O)O)c1 here?
Its value is inactive: -28.4%.

With O=C(CN1C(=O)NC2(CCCC2)C1=O)Oc1ccc2ccc(=O)oc2c1 as the compound, how does the “activity change, negative = inhibition” value read?
Its value is inactive: -26.7%.

CCC1CSC(Nc2ccc(C(=O)/C=C/c3ccc(Oc4ccccc4)cc3)cc2)=N1 (stereo unspecified) was tested. Which Potency did it give?
Its Potency is inconclusive: 79.4 µM [inhibitor, partial curve, poor fit].

How did the “activity change, negative = inhibition” value turn out when O=C(N/N=C/c1cc(Cl)cc([N+](=O)[O-])c1O)NC12CC3CC(CC(C3)C1)C2 was run?
Its value is inactive: -9.92%.

With CC1Cc2ccccc2N1C(=O)CN1C(=O)CN(C)C(=O)c2ccccc21 (stereo unspecified) as the compound, how does the “activity change, negative = inhibition” value read?
Its value is inactive: -10.7%.

How did the “activity change, negative = inhibition” value turn out when CCn1c(=O)n(CC)c2cc(S(N)(=O)=O)c(C)cc21 was run?
The value was inactive: 5.43%.

— PubChem BioAssay AID504845 (National Center for Advancing Translational Sciences (NCATS), 2011)
